# Experimental data: the supplement of paper PMC8728848
# This is one part of the list.
# Assays:
# Assay in all cases: glycan array binding signal (z-score within array); higher = stronger binding
# Settings in all cases: glycan notation: IUPAC condensed, linker removed
# Fuc(a1-2)Gal = biological target: Fuc(a1-2)Gal
# How it was run: (§1)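 Negative Z-scores can be read as non-binding. The Z-score is calculated within each array and then averaged across arrays of one protein sequence at different concentrations or buffers and across linkers. Arrays, 3228 in all, were curated from the Consortium for Functional Glycomics database and kept only where the protein sequence was available.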
# Fuc(a1-2)Gal(b1-3)GalNAc = biological target: Fuc(a1-2)Gal(b1-3)GalNAc
# How it was run: as §1
# [1] = biological target: Fuc(a1-2)Gal(b1-3)GalNAc(b1-3)Gal
# How it was run: as §1
# [2] = biological target: Fuc(a1-2)Gal(b1-3)GalNAc(b1-3)Gal(a1-4)Gal(b1-4)Glc
# How it was run: as §1
# [3] = biological target: Fuc(a1-2)Gal(b1-3)GalNAc(b1-4)[Neu5Ac(a2-3)]Gal(b1-4)Glc
# How it was run: as §1
# Fuc(a1-2)Gal(b1-3)GlcNAc = biological target: Fuc(a1-2)Gal(b1-3)GlcNAc
# How it was run: as §1
# [4] = biological target: Fuc(a1-2)Gal(b1-3)GlcNAc(b1-3)Gal(b1-4)Glc
# How it was run: as §1
# [5] = biological target: Fuc(a1-2)Gal(b1-3)[Fuc(a1-4)]GlcNAc
# How it was run: as §1
# Fuc(a1-2)Gal(b1-4)Glc = biological target: Fuc(a1-2)Gal(b1-4)Glc
# How it was run: as §1
# Fuc(a1-2)Gal(b1-4)GlcNAc = biological target: Fuc(a1-2)Gal(b1-4)GlcNAc
# How it was run: as §1
# [6] = biological target: Fuc(a1-2)Gal(b1-4)GlcNAc(b1-3)Gal(b1-4)GlcNAc
# How it was run: as §1
# [7] = biological target: Fuc(a1-2)Gal(b1-4)GlcNAc(b1-3)Gal(b1-4)GlcNAc(b1-3)Gal(b1-4)GlcNAc
# How it was run: as §1
# [8] = biological target: Fuc(a1-2)Gal(b1-4)[Fuc(a1-3)]GlcNAc
# How it was run: as §1
# [9] = biological target: Fuc(a1-2)Gal(b1-4)[Fuc(a1-3)]GlcNAc(b1-3)Gal(b1-4)[Fuc(a1-3)]GlcNAc
# How it was run: as §1
# [10] = biological target: Fuc(a1-2)Gal(b1-4)[Fuc(a1-3)]GlcNAc(b1-3)Gal(b1-4)[Fuc(a1-3)]GlcNAc(b1-3)Gal(b1-4)[Fuc(a1-3)]GlcNAc
# How it was run: as §1
# Fuc(a1-2)GlcNAc = biological target: Fuc(a1-2)GlcNAc
# How it was run: as §1
# Fuc(a1-2)[Gal(a1-3)]Gal = biological target: Fuc(a1-2)[Gal(a1-3)]Gal
# How it was run: as §1
# [11] = biological target: Fuc(a1-2)[Gal(a1-3)]Gal(b1-3)GlcNAc
# How it was run: as §1
# [12] = biological target: Fuc(a1-2)[Gal(a1-3)]Gal(b1-4)Glc
# How it was run: as §1
# [13] = biological target: Fuc(a1-2)[Gal(a1-3)]Gal(b1-4)GlcNAc
# How it was run: as §1
# [14] = biological target: Fuc(a1-2)[Gal(a1-3)]Gal(b1-4)[Fuc(a1-3)]GlcNAc
# How it was run: as §1
# [15] = biological target: Fuc(a1-2)[Gal(a1-4)]Gal(b1-4)GlcNAc
# How it was run: as §1
# [16] = biological target: Fuc(a1-2)[GalNAc(a1-3)]Gal
# How it was run: as §1
# [17] = biological target: Fuc(a1-2)[GalNAc(a1-3)]Gal(b1-3)GlcNAc
# How it was run: as §1
# [18] = biological target: Fuc(a1-2)[GalNAc(a1-3)]Gal(b1-4)Glc
# How it was run: as §1
# [19] = biological target: Fuc(a1-2)[GalNAc(a1-3)]Gal(b1-4)GlcNAc
# How it was run: as §1
# [20] = biological target: Fuc(a1-2)[GalNAc(a1-3)]Gal(b1-4)[Fuc(a1-3)]GlcNAc
# How it was run: as §1
# [21] = biological target: Fuc(a1-2)[GalNAc(a1-4)]Gal(b1-4)GlcNAc
# How it was run: as §1
# [22] = biological target: Fuc(a1-2)[GalNAc(b1-3)]Gal
# How it was run: as §1
# Fuc(a1-3)GlcNAc = biological target: Fuc(a1-3)GlcNAc
# How it was run: as §1
# [23] = biological target: Fuc(a1-3)[Gal(b1-4)]GlcNAc
# How it was run: as §1
# [24] = biological target: Fuc(a1-3)[Gal(b1-4)]GlcNAc(b1-4)Gal(b1-4)[Fuc(a1-3)]GlcNAc
# How it was run: as §1
# [25] = biological target: Fuc(a1-3)[Gal(b1-4)]GlcNAc(b1-4)Gal(b1-4)[Fuc(a1-3)]GlcNAc(b1-4)Gal(b1-4)[Fuc(a1-3)]GlcNAc
# How it was run: as §1
# [26] = biological target: Fuc(a1-3)[Gal3S(b1-4)]GlcNAc
# How it was run: as §1
# [27] = biological target: Fuc(a1-3)[GalNAc(b1-4)]GlcNAc
# How it was run: as §1
# Fuc(a1-4)GlcNAc = biological target: Fuc(a1-4)GlcNAc
# How it was run: as §1
# Fuc(b1-3)GlcNAc = biological target: Fuc(b1-3)GlcNAc
# How it was run: as §1
binder,measurement,setting,value
"F17fG (Escherichia coli), Q9RH91 (protein) MTNFYKVFLAVFILVCCNISHAAVSFIGSTENDVGPSQGSYSSTHAMDNLPFVYNTGHNIGYQNANVWRISGGFCVGLDGKVDLPVVGSLDGQSIYGLTEEVGLLIWMGDTNYSRGTAMSGNSWENVFSGWCVGNYVSTQGLSVHVRPVILKRNSSAQYSVQKTSIGSIRMRPYNGSSAGSVQTTVNFSLNPFTLNDTVTSCRLLTPSAVNVSLAAISAGQLPSSGDEVVAGTTSLKLQCDAGVTVWATLTDATTPSNRSDILTLTGASTATGVGLRIYKNTDSTPLKFGPDSPVKGNENQWQLSTGTETSPSVRLYVKYVNTGEGINPGTVNGISTFTFSYQ",glycan array binding signal (z-score),Fuc(a1-2)Gal,-0.338
same,glycan array binding signal (z-score),Fuc(a1-2)Gal(b1-3)GalNAc,-0.344
same,glycan array binding signal (z-score),[1],-0.341
same,glycan array binding signal (z-score),[2],-0.22
same,glycan array binding signal (z-score),[3],-0.197
same,glycan array binding signal (z-score),Fuc(a1-2)Gal(b1-3)GlcNAc,-0.319
same,glycan array binding signal (z-score),[4],-0.347
same,glycan array binding signal (z-score),[5],-0.364
same,glycan array binding signal (z-score),Fuc(a1-2)Gal(b1-4)Glc,0.36
same,glycan array binding signal (z-score),Fuc(a1-2)Gal(b1-4)GlcNAc,-0.322
same,glycan array binding signal (z-score),[6],-0.23
same,glycan array binding signal (z-score),[7],-0.327
same,glycan array binding signal (z-score),[8],-0.336
same,glycan array binding signal (z-score),[9],-0.338
same,glycan array binding signal (z-score),[10],-0.335
same,glycan array binding signal (z-score),Fuc(a1-2)GlcNAc,-0.38
same,glycan array binding signal (z-score),Fuc(a1-2)[Gal(a1-3)]Gal,-0.198
same,glycan array binding signal (z-score),[11],-0.391
same,glycan array binding signal (z-score),[12],-0.394
same,glycan array binding signal (z-score),[13],-0.267
same,glycan array binding signal (z-score),[14],-0.328
same,glycan array binding signal (z-score),[15],-0.127
same,glycan array binding signal (z-score),[16],-0.358
same,glycan array binding signal (z-score),[17],-0.157
same,glycan array binding signal (z-score),[18],-0.36
same,glycan array binding signal (z-score),[19],-0.206
same,glycan array binding signal (z-score),[20],-0.268
same,glycan array binding signal (z-score),[21],0.293
same,glycan array binding signal (z-score),[22],-0.394
same,glycan array binding signal (z-score),Fuc(a1-3)GlcNAc,-0.201
same,glycan array binding signal (z-score),[23],-0.39
same,glycan array binding signal (z-score),[24],-0.238
same,glycan array binding signal (z-score),[25],-0.262
same,glycan array binding signal (z-score),[26],-0.234
same,glycan array binding signal (z-score),[27],-0.301
same,glycan array binding signal (z-score),Fuc(a1-4)GlcNAc,-0.38
same,glycan array binding signal (z-score),Fuc(b1-3)GlcNAc,-0.373
